Source: PubChem BioAssay AID1671194 (National Center for Advancing Translational Sciences (NCATS), 2021)
Where “and” joins values, the source holds several entries; their conditions need not be identical. Identical values can stand only once. Among all 140,000 compounds or so, about 240 (0.17%) were called active. Inconclusive results, whose numbers are uncertain, are shown with a selection of clear calls. Calls come from the whole dose curve; as a rule, active = well fitted inhibition curve with a large enough effect; inconclusive = small, poorly fitted or top-dose-only effect; inactive = no such curve, though single readings can be large or run the other way. Potencies of inconclusive entries are doubtful fits and often do not repeat.

Assay: Primary qHTS assay for inhibitors of alpha-synuclein gene (SNCA) expression; note: nearly all actives have a fitted effect of over 45% in size;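 for activity change, negative = inhibition: plate controls were DMSO cells for no effect and cell-free wells for full effect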
Conditions: HEK-293 SNCA-luciferase knock-in, luminescence, 24 h; activity change, negative = inhibition: at 57.2 µM (top of the series) unless noted
Potency is the fitted concentration of half-maximal effect; tags give direction and shape of the fitted curve.

Potency, inactive:
c1ccc(-c2nc3ccncc3[nH]2)nc1

Potency, active:
Cc1cccc(-c2nc3ccc(C(=O)N4CCCCC4)cc3o2)n1 7.94 µM
Cn1c(=O)n(-c2ccc3c(c2)OCO3)c2nc(-c3ccc(Cl)cc3)nc(C(N)=O)c21 31.6 µM

Potency, inconclusive:
COC(=O)CNC(=O)c1cc(-c2ccc([S+](C)(=O)[O-])cc2)nc2c1cnn2C 7.08 µM [inhibitor, single point]
COc1cncc([C@@H](NC(=O)Cc2ccsc2)C2CC(O)C2)c1 (stereo partly drawn) 8.91 µM [inhibitor, single point]
COc1ccc(-n2ccnc2CN(C)Cc2cc(C(C)C)on2)cc1 0.891 µM [inhibitor, full curve, poor fit]
O=C(c1ccc(F)cc1)N1CCC(Cc2nc(-c3ccccc3)no2)CC1 39.8 µM [inhibitor, single point]
CN(CC1CCOC1)C(=O)Nc1ccccc1 (stereo not drawn) 39.8 µM [inhibitor, single point]
O=C(NCCc1ccccc1)C1CCN(Cc2cc3ccccc3n2Cc2ccccc2)CC1 39.8 µM [inhibitor, single point]
CNc1ncc(CN(C)C(=O)CCc2cc3n(n2)CCCNC3)cn1 3.98 µM [inhibitor, single point]
Cc1ccccc1C(=O)N1CCC2(C1)C(=O)N(CCc1ccccc1)c1ccccc12 (stereo not drawn) 5.62 µM [inhibitor, partial curve, poor fit] and 39.8 µM [inhibitor, single point]
C[C@H]1[C@@H](OC(=O)CCC(=O)O)O[C@@H]2O[C@@]3(C)CC[C@@H]4[C@H](C)CC[C@@H]1[C@@]24OO3 3.41 µM [inhibitor, full curve, poor fit]
O=C(c1ccccc1)N1CCOc2ccc(CN3CCc4ccccc4C3)cc2C1 1.78 µM [inhibitor, partial curve, poor fit]
CC#CCn1cc2c3c(cccc31)[C@H](CC(C)C)N[C@H](C(=O)NC(C)C)C2 56.2 µM [inhibitor, single point]
O=C(O)C1CCc2nnc(C3CCN(C(=O)c4ccc(F)cc4)CC3)n21 (stereo not drawn) 1.41 µM [inhibitor, partial curve, poor fit]
O=C(Cn1cccc1-c1nc(-c2ccc3c(c2)OCO3)no1)NCc1ccccc1Cl 3.55 µM [inhibitor, single point]
CC1(COCC2CC2)COc2ccc(C(=O)NCc3cccnc3)cc2N1 (stereo not drawn) 12.6 µM [inhibitor, single point]
Cc1ccc(NC(=O)/C(C#N)=C/c2cc(C)n(-c3ccc(Br)cc3)c2C)cc1C 25.1 µM [inhibitor, single point]
Fc1ccc(-c2cn3cc(Cc4ccccc4Cl)sc3n2)cc1 15.8 µM [inhibitor, single point]
N#Cc1cccc(-c2c(C(=O)NCc3cccc(C(F)(F)F)c3)nc3sccn23)c1 39.8 µM [inhibitor, single point]
CCC1(O)CCC12CCN(C(=O)c1ccc(C)nc1)CC2 (stereo not drawn) 20 µM [inhibitor, partial curve, poor fit]
CC(=O)Nc1ccc(NS(=O)(=O)c2cc(Br)cc3c2N(C(=O)C2CC2)CC3)cc1 3.98 µM [inhibitor, single point]
CCc1ccc(Nc2ncncc2-c2nc(-c3ccccc3)no2)cc1 2.82 µM [inhibitor, full curve, poor fit]
CCOc1ccccc1NC(=O)CSc1ccc2nnc(CCNS(=O)(=O)c3ccccc3)n2n1 2.24 µM [inhibitor, full curve, poor fit]
O=C(NC1CCN(Cc2ccccc2)CC1)c1cc2c(s1)CN(C1CCCC1)C2 20 µM [inhibitor, partial curve, poor fit]
CN(CC1CCOCC1)S(=O)(=O)c1ccccc1Br 10 µM [inhibitor, partial curve, poor fit]
O=C(c1ccc2[nH]ccc2c1)N1CCC(n2cc(-c3nc(-c4ccccc4)no3)nn2)C1 (stereo not drawn) 17.8 µM [inhibitor, single point]
COc1ccc(Br)cc1Cn1nnc(C(=O)Nc2ccc(C)cc2C)c1N 39.8 µM [inhibitor, single point]
CCCCOc1ccc(C(=O)N2CC(=O)Nc3ccc(Br)cc3C2c2ccc(F)cc2)cc1 (stereo not drawn) 11.2 µM [inhibitor, partial curve, poor fit]
COc1ccc(C(=O)N2CCCCCCNC(=O)CC2)cn1 7.08 µM [inhibitor, single point]
O=C(Cc1cccc(F)c1)N1CCC(Cc2noc(C3CCOCC3)n2)C1 (stereo not drawn) 8.91 µM [inhibitor, single point]
Fc1ccc(CCC2CCCN(Cc3nccs3)C2)cc1F (stereo not drawn) 8.91 µM [inhibitor, single point]
O=C(Nc1ccccc1)N1CCC(CCc2nc(C3CCOCC3)no2)CC1 39.8 µM [inhibitor, partial curve, poor fit]
CN1CCN(c2ccc3ncc(Nc4ccc(Cl)c(C(F)(F)F)c4)n3n2)CC1 7.94 µM [inhibitor, full curve, poor fit]
CCOC(=O)c1ccc(NC(=O)c2cnn(-c3ccc(C)cc3C)c2C2CCN(C(=O)OC(C)(C)C)CC2)cc1 31.6 µM [inhibitor, single point]
CC1(CNc2ccccc2)COc2ccc(C(=O)NCc3cccs3)cc2N1 (stereo not drawn) 8.91 µM [inhibitor, partial curve]
CCCC(CCC)C(=O)Nc1cccc(-c2nc3cccnc3s2)c1C 39.8 µM [inhibitor, single point]
O=C(c1ccc(Cl)cc1)N1CCC(c2n[nH]c(=O)n2-c2ccccc2)CC1 39.8 µM [inhibitor, single point]
CCc1c(C)sc(NC(=O)c2cc(-c3cccc(Cl)c3)on2)c1C#N 31.6 µM [inhibitor, single point]
COc1cccc(N2C(=O)NC(=NC3CCCCC3)C23CCCN(Cc2ccsc2)C3)c1 (stereo not drawn) 0.794 µM [inhibitor, full curve, poor fit]
COc1ccc(N(CC(=O)Nc2cccc(Cl)c2C)S(=O)(=O)c2c(C)nn(C)c2C)cc1 20 µM [inhibitor, partial curve, poor fit]
Cc1cc(C2CCCCC2)n(O)c(=O)c1 10.8 µM [inhibitor, full curve, poor fit]
CCCCCOc1c(Cl)cc(C(=O)N(Cc2ccc(C)o2)C2CCS(=O)(=O)C2)cc1Cl (stereo not drawn) 20 µM [inhibitor, single point]
CCOC(=O)c1ccc(N2C(=O)c3n[nH]c(-c4ccco4)c3C2c2ccc(O)cc2)cc1 (stereo not drawn) 39.8 µM [inhibitor, single point]
O=C(Nc1nnc(Cc2ccccc2)s1)C1CC(=O)N(c2n[nH]c3cccc(F)c23)C1 (stereo not drawn) 39.8 µM [inhibitor, single point]
Cc1ccc(-c2cccc(CN3C4CCC3CN(C(C)C)C4)c2)c(C)c1 28.2 µM [inhibitor, partial curve, poor fit]
O=C(Cc1c[nH]c2ncc(-c3cccc(O)c3)cc12)N1CCOCC1 12.6 µM [inhibitor, single point]

Activity change, negative = inhibition, inactive:
Cc1noc(C)c1C(=O)N1CCCCC1c1nc(CCOCC2CCCC2)no1 (stereo not drawn) 5.73%
Cc1ccc(Nc2ccnc(N3CCC(C(=O)N4CCCC4)CC3)n2)cc1 -13.7%
Cc1nn(-c2ccc(C(F)(F)F)cc2)c(C)c1[C@@H]1C=C[C@@H](NC(=O)Nc2ccccc2)C1 13% [at 87.6 µM]
Cc1ccccc1COC1CN(C(=O)C2CC(=O)N(C(C)(C)C)C2)C1 (stereo not drawn) 0.685%
COc1ccc(NC(=O)N2Cc3[nH]cnc3C[C@H]2c2nc(-c3ccc(Cl)cc3)no2)cc1 -24%
CN(Cc1cncs1)C1CCc2ccccc21 (stereo not drawn) 29.4% [at 87.6 µM]
CN(CCO)c1ccc(-c2nc(CCCc3ccccc3)no2)cn1 106%
COc1ccccc1CCC(=O)N1CCN(c2cc(-c3ccccc3)[nH]n2)CC1 -17.4%
O=C(NCc1ccc(F)cc1)N1CC(Oc2ccc(-c3noc(-c4ccccc4)n3)cc2)C1 -18.3%
O=C1NC2(CCN(Cc3ccc(F)cc3)C2)Oc2ccccc21 (stereo not drawn) 37.1% [at 87.6 µM]
Cc1noc(C2CC3(CCN(C(=O)C4(c5ccccc5)CC4)CC3)CN2C)n1 (stereo not drawn) -13%
CC1=C(C(=O)OC(C)C)C(c2cccc([N+](=O)[O-])c2)C(C(=O)OC2CN(C(c3ccccc3)c3ccccc3)C2)=C(N)N1 (stereo not drawn) -40.7% [at 25.6 µM]
COc1ccc2c(c1)CCN=C2C[C@H]1CN(C(=O)c2ccccc2)CC[C@H]1CC(=O)O -18.2% [at 87.6 µM]
CC(=O)N1CCN(C[C@@H]2C=C(C)[C@H](Cc3nnc(-c4ccncc4)o3)C[C@H]2C(C)C)CC1 -13.6% [at 87.6 µM]
CCOCCCNC(=O)c1nnn2cc(-c3ccccc3)[nH]c(=O)c12 19.5%
COC[C@@H]1CN(C(=O)c2cn3ccccc3n2)C[C@H]1c1nc(C)no1 1.29%
